Source: PMC4359380
These are yes or no findings as the source states them, for the method shown. In cells and extracts the contact can be indirect. Some entries that bind do so weakly or less than the wild type. For part of these data: Sequences can lack the tags named with a protein.

The chains behind the UniProt entries cited, without tags or fusion partners. Where a name states a change or a piece, a line headed by the entry shows the natural chain unless it says otherwise.
UniProt Q15544: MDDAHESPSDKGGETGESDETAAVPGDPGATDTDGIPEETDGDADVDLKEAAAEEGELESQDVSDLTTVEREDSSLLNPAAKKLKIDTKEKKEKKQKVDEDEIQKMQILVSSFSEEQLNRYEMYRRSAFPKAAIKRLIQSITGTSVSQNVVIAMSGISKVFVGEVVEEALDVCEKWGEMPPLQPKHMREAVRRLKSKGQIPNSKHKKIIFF

Tests used:
[1] = target: T1, HNF4A (expressed in HEK cells) (UniProt P41235); test: co-IP; HEK cells transfected with combinations of expression vectors; extracts precipitated with anti-HNF4A antibodies; Western blot
T1 sequence: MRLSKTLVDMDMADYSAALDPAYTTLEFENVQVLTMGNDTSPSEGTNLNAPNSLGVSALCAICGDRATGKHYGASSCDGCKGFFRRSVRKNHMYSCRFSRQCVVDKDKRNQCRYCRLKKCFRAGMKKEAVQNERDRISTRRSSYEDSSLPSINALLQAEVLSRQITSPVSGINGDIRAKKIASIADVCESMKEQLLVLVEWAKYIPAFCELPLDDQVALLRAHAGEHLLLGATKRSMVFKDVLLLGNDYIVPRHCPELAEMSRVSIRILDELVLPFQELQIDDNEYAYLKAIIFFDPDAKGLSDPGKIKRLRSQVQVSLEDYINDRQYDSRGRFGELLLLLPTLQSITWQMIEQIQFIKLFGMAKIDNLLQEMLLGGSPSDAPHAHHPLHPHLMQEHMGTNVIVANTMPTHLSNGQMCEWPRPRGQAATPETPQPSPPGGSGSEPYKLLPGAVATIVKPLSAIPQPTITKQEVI

[2] = target: T2, 6HIS-tagged TAF4(805–1083)–TAF12(29–161) heterodimer (human) (UniProt O00268+Q16514); test: pull-down; co-expression in E. coli BL21; supernatant of sonicated cells (10 mM Tris-HCl pH 8.0 and 50, 200 or 400 mM NaCl) on TALON cobalt resin, 2 h, 4°C; retained proteins by SDS-PAGE and Coomassie staining; His tag on TAF4–TAF12
T2 sequence 1: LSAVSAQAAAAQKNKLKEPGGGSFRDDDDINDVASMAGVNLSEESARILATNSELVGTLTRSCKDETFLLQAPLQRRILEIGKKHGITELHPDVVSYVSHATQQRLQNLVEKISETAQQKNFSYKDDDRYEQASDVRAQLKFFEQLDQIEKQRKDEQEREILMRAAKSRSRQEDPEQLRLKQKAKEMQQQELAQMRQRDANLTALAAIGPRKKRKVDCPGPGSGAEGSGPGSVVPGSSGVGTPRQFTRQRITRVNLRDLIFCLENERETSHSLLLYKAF
T2 sequence 2: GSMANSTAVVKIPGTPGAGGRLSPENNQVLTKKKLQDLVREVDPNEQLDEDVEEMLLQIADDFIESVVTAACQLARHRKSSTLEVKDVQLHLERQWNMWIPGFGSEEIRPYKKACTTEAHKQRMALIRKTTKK

[3] = target: T3, TAF4(832–966)–6XHIS-tagged TAF12 heterodimer (human) (UniProt O00268+Q16514); test: as above
T3 sequence 1: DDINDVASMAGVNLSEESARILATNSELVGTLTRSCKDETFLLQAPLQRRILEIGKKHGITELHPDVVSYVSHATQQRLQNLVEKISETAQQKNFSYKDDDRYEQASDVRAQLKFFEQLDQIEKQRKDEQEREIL
T3 sequence 2: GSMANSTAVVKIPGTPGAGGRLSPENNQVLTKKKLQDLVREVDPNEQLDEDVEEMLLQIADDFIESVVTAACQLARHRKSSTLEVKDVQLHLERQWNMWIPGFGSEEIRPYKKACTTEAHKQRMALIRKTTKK

[4] = target: 6XHIS-tagged TAF12 (29–161) (human) (UniProt Q16514); test: as above

“TAF4(805–1083)–TAF12 heterodimer (HEK cells) (from UniProt O00268 805-1083; Q16514 1-161) (complex)” was tested, and the binding [1] was “binds”.

For “TAF4–TAF12 heterodimer (full-length TAF4 with TAF12) (from UniProt O00268 1-1085; Q16514 1-161) (complex)”, the binding [1] was “binds”.

“TAF11–TAF13 histone fold pair (from UniProt Q15544 1-211; Q15543 1-124) (complex)” was tested, and the binding [1] was “no binding”.

B1: full-length TAF4 (mouse or human), expressed alone (protein, UniProt O00268 1-1085)
chain: MAAGSDLLDEVFFNSEVDEKVVSDLVGSLESQLAASAAHHHHLAPRTPEVRAAAAGALGNHVVSGSPAGAAGAGPAAPAEGAPGAAPEPPPAGRARPGGGGPQRPGPPSPRRPLVPAGPAPPAAKLRPPPEGSAGSCAPVPAAAAVAAGPEPAPAGPAKPAGPAALAARAGPGPGPGPGPGPGPGPGKPAGPGAAQTLNGSAALLNSHHAAAPAVSLVNNGPAALLPLPKPAAPGTVIQTPPFVGAAAPPAPAAPSPPAAPAPAAPAAAPPPPPPAPATLARPPGHPAGPPTAAPAVPPPAAAQNGGSAGAAPAPAPAAGGPAGVSGQPGPGAAAAAPAPGVKAESPKRVVQAAPPAAQTLAASGPASTAASMVIGPTMQGALPSPAAVPPPAPGTPTGLPKGAAGAVTQSLSRTPTATTSGIRATLTPTVLAPRLPQPPQNPTNIQNFQLPPGMVLVRSENGQLLMIPQQALAQMQAQAHAQPQTTMAPRPATPTSAPPVQISTVQAPGTPIIARQVTPTTIIKQVSQAQTTVQPSATLQRSPGVQPQLVLGGAAQTASLGTATAVQTGTPQRTVPGATTTSSAATETMENVKKCKNFLSTLIKLASSGKQSTETAANVKELVQNLLDGKIEAEDFTSRLYRELNSSPQPYLVPFLKRSLPALRQLTPDSAAFIQQSQQQPPPPTSQATTALTAVVLSSSVQRTAGKTAATVTSALQPPVLSLTQPTQVGVGKQGQPTPLVIQQPPKPGALIRPPQVTLTQTPMVALRQPHNRIMLTTPQQIQLNPLQPVPVVKPAVLPGTKALSAVSAQAAAAQKNKLKEPGGGSFRDDDDINDVASMAGVNLSEESARILATNSELVGTLTRSCKDETFLLQAPLQRRILEIGKKHGITELHPDVVSYVSHATQQRLQNLVEKISETAQQKNFSYKDDDRYEQASDVRAQLKFFEQLDQIEKQRKDEQEREILMRAAKSRSRQEDPEQLRLKQKAKEMQQQELAQMRQRDANLTALAAIGPRKKRKVDCPGPGSGAEGSGPGSVVPGSSGVGTPRQFTRQRITRVNLRDLIFCLENERETSHSLLLYKAFLK
With B1 the binding [1] was “binds”.

B2: full length HNF4A (bacterially expressed, untagged) (protein, UniProt P41235 1-474)
chain: MRLSKTLVDMDMADYSAALDPAYTTLEFENVQVLTMGNDTSPSEGTNLNAPNSLGVSALCAICGDRATGKHYGASSCDGCKGFFRRSVRKNHMYSCRFSRQCVVDKDKRNQCRYCRLKKCFRAGMKKEAVQNERDRISTRRSSYEDSSLPSINALLQAEVLSRQITSPVSGINGDIRAKKIASIADVCESMKEQLLVLVEWAKYIPAFCELPLDDQVALLRAHAGEHLLLGATKRSMVFKDVLLLGNDYIVPRHCPELAEMSRVSIRILDELVLPFQELQIDDNEYAYLKAIIFFDPDAKGLSDPGKIKRLRSQVQVSLEDYINDRQYDSRGRFGELLLLLPTLQSITWQMIEQIQFIKLFGMAKIDNLLQEMLLGGSPSDAPHAHHPLHPHLMQEHMGTNVIVANTMPTHLSNGQMCEWPRPRGQAATPETPQPSPPGGSGSEPYKLLPGAVATIVKPLSAIPQPTITKQEVI
B2 was tested, and the binding [2] was “binds”.

B3: HNF4A DBD-hinge-ligand binding domain (DBD–LBD, 55–377) (domain or fragment, UniProt P41235 55-377)
chain: GVSALCAICGDRATGKHYGASSCDGCKGFFRRSVRKNHMYSCRFSRQCVVDKDKRNQCRYCRLKKCFRAGMKKEAVQNERDRISTRRSSYEDSSLPSINALLQAEVLSRQITSPVSGINGDIRAKKIASIADVCESMKEQLLVLVEWAKYIPAFCELPLDDQVALLRAHAGEHLLLGATKRSMVFKDVLLLGNDYIVPRHCPELAEMSRVSIRILDELVLPFQELQIDDNEYAYLKAIIFFDPDAKGLSDPGKIKRLRSQVQVSLEDYINDRQYDSRGRFGELLLLLPTLQSITWQMIEQIQFIKLFGMAKIDNLLQEMLLGG
For B3, the binding [3] was “binds”.

B4: HNF4A ligand binding domain (LBD, 148–377) (domain or fragment, UniProt P41235 148-377)
chain: SLPSINALLQAEVLSRQITSPVSGINGDIRAKKIASIADVCESMKEQLLVLVEWAKYIPAFCELPLDDQVALLRAHAGEHLLLGATKRSMVFKDVLLLGNDYIVPRHCPELAEMSRVSIRILDELVLPFQELQIDDNEYAYLKAIIFFDPDAKGLSDPGKIKRLRSQVQVSLEDYINDRQYDSRGRFGELLLLLPTLQSITWQMIEQIQFIKLFGMAKIDNLLQEMLLGG
For B4, the binding [3] was “binds”.

B5: TAF4 (805–1083), bacterially expressed (domain or fragment, UniProt O00268 805-1083)
chain: LSAVSAQAAAAQKNKLKEPGGGSFRDDDDINDVASMAGVNLSEESARILATNSELVGTLTRSCKDETFLLQAPLQRRILEIGKKHGITELHPDVVSYVSHATQQRLQNLVEKISETAQQKNFSYKDDDRYEQASDVRAQLKFFEQLDQIEKQRKDEQEREILMRAAKSRSRQEDPEQLRLKQKAKEMQQQELAQMRQRDANLTALAAIGPRKKRKVDCPGPGSGAEGSGPGSVVPGSSGVGTPRQFTRQRITRVNLRDLIFCLENERETSHSLLLYKAF
In the case of B5, the binding [4] is reported as “binds”.

B6: TAF4 (832–966), bacterially expressed (domain or fragment, UniProt O00268 832-966)
chain: DDINDVASMAGVNLSEESARILATNSELVGTLTRSCKDETFLLQAPLQRRILEIGKKHGITELHPDVVSYVSHATQQRLQNLVEKISETAQQKNFSYKDDDRYEQASDVRAQLKFFEQLDQIEKQRKDEQEREIL
For B6, the binding [4] was “binds”.
